GI50 and TGI data for three compounds are collected here from PubChem BioAssay (NCI).

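Values below derive from 48-hour exposures of cells grown in 96-well plates, with endpoints linearly interpolated between the two concentrations bracketing the appropriate inhibition level. Abbreviation: GI50, concentration required for 50% inhibition of growth. TGI: total growth inhibition.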 Bounds are passed on as bounds.

The experiment concerns NCI-H322M lung. The experiment can be described thus: NCI-60 cell line screen, 48 h.
Regarding `O=C(c1ccc(Cl)cc1)C1[C@H](c2ccc(Br)cc2)[C@@H](c2ccccc2)NC12C(=O)Nc1ccc(Cl)cc12` (stereo partly specified), the GI50 is 5.36 µM and the TGI was found to be 11.8 µM.
The matching figures for `COc1cccc(-c2c(C#N)c(-c3ccc(Cl)cc3)nc3n[nH]c(-c4ccc(Cl)cc4)c23)c1`: 24 µM and > 100 µM.
Consider `NS(=O)(=O)c1ccc(N=Nc2c(O)n(CC(=O)Nc3ccccc3)c3ccccc23)cc1`, for which the GI50 was 2.45 µM and the TGI came to 7.8 µM.
